The densities may have been worked out from excess volumes.
Experiment: xn = mol fraction of the nth substance listed
Settings: 100 kPa

CO + CCCC[n+]1ccn(C)c1.O=S(=O)([N-]S(=O)(=O)C(F)(F)F)C(F)(F)F
x1 = 1
Settings	mass density [kg/m3]
298.15 K	786.9
303.15 K	782.2
308.15 K	777.4
313.15 K	772.6
318.15 K	767.8
323.15 K	763

CS(C)=O + CCCC[n+]1ccn(C)c1.O=S(=O)([N-]S(=O)(=O)C(F)(F)F)C(F)(F)F
mass density [kg/m3]
Settings	x1 = 0.0951	x1 = 0.2074	x1 = 0.2885	x1 = 0.4003	x1 = 0.5026	x1 = 0.5903	x1 = 0.7066	x1 = 0.8039	x1 = 0.9012	x1 = 1
298.15 K	1424.4	1409.1	1397.6	1376.2	1355.7	–	1307.2	1262.2	1195.4	1095.6
303.15 K	1419.6	1404.3	–	1371.3	–	1334.6	1302.3	1257.3	1190.4	1090.6
308.15 K	1414.8	1399.4	1387.9	1366.5	1345.9	–	1297.4	1252.3	1185.5	–
313.15 K	–	–	1383.1	1361.6	1341	–	1292.5	1247.4	1180.5	–
318.15 K	1405.2	1389.8	1378.2	1356.7	1336.1	1320	1287.7	1242.5	1175.6	1075.6
323.15 K	1400.5	1385	1373.4	1351.8	1331.3	1314.8	1282.8	1237.8	–	1070.7

CCCC[n+]1ccn(C)c1.O=S(=O)([N-]S(=O)(=O)C(F)(F)F)C(F)(F)F + CO
mass density [kg/m3]
Settings	x2 = 0	x2 = 0.0986	x2 = 0.2068	x2 = 0.295	x2 = 0.4004	x2 = 0.4923	x2 = 0.5956	x2 = 0.7056	x2 = 0.7947	x2 = 0.8978
298.15 K	–	–	1409.3	1396.2	1380.6	1366.3	1343.8	–	1238.6	1085.7
303.15 K	–	–	1404.5	1391.4	–	1361.4	1338.8	1298.1	1233.5	1080.7
308.15 K	1426.4	1412.8	1399.7	1386.6	1371	1356.5	1333.9	1293.2	1228.5	1075.7
313.15 K	1421.6	1408	1395	1381.9	1366.2	1351.6	1329	1288.2	1223.4	1070.7
318.15 K	1416.9	–	1390.2	–	1361.5	–	1324.1	–	1218.4	1065.6
323.15 K	1412.1	1398.6	1385.6	1372.5	1356.7	1342	1319.2	–	1213.4	–

CCCC[n+]1ccn(C)c1.O=S(=O)([N-]S(=O)(=O)C(F)(F)F)C(F)(F)F + CS(C)=O
x2 = 0
Settings	mass density [kg/m3]
298.15 K	1435.9
308.15 K	1426.4
323.15 K	1412.1

From a compilation of properties of binary mixtures (doi:10.1016/j.molliq.2017.03.027)
